# In the antibiotic and cytotoxicity screens of Wong et al. (2023):
# Some of the results follow.
# Test system: HSkMC (human skeletal muscle cells)
# Assay: cytotoxicity call (relative viability < 0.9)
# Settings: 10 µM
row,SMILES,cytotoxicity call
1,CC[C@@H](O)C[C@H]1CC[C@H]([C@@H](C)C(=O)O[C@@H](C)C[C@H]2CC[C@H]([C@@H](C)C(=O)O[C@@H](C)C[C@H]3CC[C@H]([C@@H](C)C(=O)O[C@@H](C)C[C@H]4CC[C@H]([C@@H](C)C(=O)O)O4)O3)O2)O1,inactive
2,CC(C)NC(=O)N(C)C[C@H]1Oc2ccc(NC(=O)Cc3ccccc3)cc2CC(=O)N([C@@H](C)CO)C[C@H]1C,inactive
3,CC(C)NC(=O)Nc1ccc2c(c1)C(=O)N([C@@H](C)CO)C[C@H](C)[C@@H](CN(C)S(=O)(=O)c1ccccc1)O2,inactive
4,C[C@@H]1CCCCO[C@H](CN(C)S(=O)(=O)c2ccc(Cl)cc2)[C@H](C)CN([C@@H](C)CO)C(=O)c2cc(NC(=O)c3ccncc3)ccc2O1,inactive
5,Cc1noc(C)c1NC(=O)Nc1ccc2c(c1)CC(=O)N([C@@H](C)CO)C[C@H](C)[C@H](CN(C)Cc1ccc(Oc3ccccc3)cc1)O2,inactive
6,COc1ccc(CN(C)C[C@H]2OCCCC[C@@H](C)Oc3ccc(NS(=O)(=O)c4c(C)noc4C)cc3C(=O)N([C@@H](C)CO)C[C@@H]2C)cc1,inactive
7,C[C@H]1CN([C@@H](C)CO)C(=O)Cc2cc(NC(=O)Nc3ccccc3)ccc2O[C@@H]1CN(C)S(=O)(=O)c1cn(C)cn1,inactive
8,COCC(=O)N1C[C@@H](C)[C@@H](OC)CN(C)C(=O)c2cc(NC(=O)c3cc(C)on3)ccc2OC[C@@H]1C,inactive

# Test system: HepG2
# Assay: cytotoxicity call (relative viability < 0.9)
# Settings: 10 µM
row,SMILES,cytotoxicity call
1,C[C@@H]1CN([C@H](C)CO)C(=O)c2cccc(NC(=O)c3ccc(-c4nccs4)cc3)c2O[C@@H]1CN(C)S(C)(=O)=O,inactive
2,COc1ccc(S(=O)(=O)N(C)C[C@H]2OCCCC[C@@H](C)Oc3ccc(NC(=O)CCC(F)(F)F)cc3C(=O)N([C@H](C)CO)C[C@@H]2C)cc1,inactive
3,COCC(=O)Nc1ccc2c(c1)[C@H]1C[C@@H](CC(=O)N3CCOCC3)O[C@H](CO)[C@H]1O2,inactive
4,NC1CCC(c2ccccc2)CC1 (centres undefined),inactive
5,C[C@H](CO)N1C[C@H](C)[C@H](CN(C)S(=O)(=O)c2cn(C)cn2)Oc2c(NC(=O)C3CCOCC3)cccc2C1=O,inactive
6,Cc1noc(C)c1NC(=O)N(C)C[C@@H]1Oc2c(NS(=O)(=O)c3c(C)noc3C)cccc2C(=O)N([C@H](C)CO)C[C@@H]1C,inactive
7,C[C@H](CO)N1C[C@H](C)[C@H](CN(C)Cc2ccccc2)OCCCC[C@H](C)Oc2ccc(NC(=O)Nc3cccc4ccccc34)cc2C1=O,inactive
8,Cc1ccc(S(=O)(=O)Nc2ccc3c(c2)C(=O)N([C@@H](C)CO)C[C@@H](C)[C@@H](CN(C)CC2CC2)O3)cc1,inactive
9,C[C@H](CO)N1C[C@H](C)[C@@H](CN(C)CC2CCCCC2)OCCCC[C@H](C)Oc2ccc(NC(=O)Nc3cccc4ccccc34)cc2C1=O,active
10,COc1ccc([C@@H](O)[C@@H](CCO)OC)cc1O,inactive
11,COc1ccc2c3c(n(c2c1)C)[C@@H](CO)N(C[C@]13CCN(CC1)C(=O)Nc1c(noc1C)C)C(=O)Nc1ccc(cc1)F,inactive
12,C[C@@H]1CCCCO[C@H](CN(C)S(=O)(=O)c2ccc(Cl)cc2)[C@@H](C)CN([C@H](C)CO)C(=O)c2cc(NC(=O)Nc3ccccc3)ccc2O1,inactive
13,C[C@H]1CCCCO[C@@H](CN(C)C(=O)NC2CCCCC2)[C@@H](C)CN([C@@H](C)CO)C(=O)c2cc(NS(=O)(=O)c3ccccc3)ccc2O1,inactive
14,C[C@@H]1CCCCO[C@H](CN(C)C)[C@H](C)CN([C@H](C)CO)C(=O)c2cc(NC(=O)Nc3ccc(C(F)(F)F)cc3)ccc2O1,active
15,C[C@H]1CN([C@@H](C)CO)C(=O)c2c(c3ccccc3n2C)-c2ccccc2CO[C@@H]1CN(C)Cc1cccc(O)c1,inactive
16,Cc1cc(NC(=O)C(=O)NC[C@H]2CCCO2)n(-c2nc(=O)cc(C)[nH]2)n1,inactive
17,C[C@H]1CN([C@@H](C)CO)C(=O)c2cc(NC(=O)Nc3ccc(F)cc3)ccc2O[C@H]1CN(C)Cc1ccc(C(=O)Nc2ccccc2N)cc1,inactive
18,CC1=CC(C)(C)N(C(=O)Nc2ccc(C)cc2)c2ccccc21,inactive
19,COc1cccc(C#Cc2ccc3c(c2)O[C@H](CN(C)C(=O)c2ccccn2)[C@H](C)CN([C@@H](C)CO)S3(=O)=O)c1,inactive
20,O=C1NCCN1c1ncc([N+](=O)[O-])s1,inactive
21,O=C(C[C@@H]1CC[C@@H]2[C@H](COC[C@H](O)CN2S(=O)(=O)c2ccccc2F)O1)N1CCC(Cc2ccccc2)CC1,inactive
